In all, about 48,000 compounds went through this assay and about 120 (0.25%) were called active. Roughly 4% stayed inconclusive and do not appear here. Calls come from the whole dose curve; as a rule, active = well fitted activation curve with a large enough effect; inconclusive = small, poorly fitted or top-dose-only effect, or another doubt; inactive = no such curve, though single readings can be large or run the other way. This is one part of the list.
Assay: Primary qHTS for Identification of Small Molecule Activators of Huntingtin-Antisense Promoter Activity; note: nearly all actives have a fitted effect of over 55% in size
Conditions: HEK293 HTT-AS promoter firefly luciferase reporter, 24 h; series mostly up to 57.5 µM; activity change, positive = activation: at the top concentration
Procedure, shortened: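 Luminescence was read after Dual-Glo reagent and a 10 min room-temperature incubation. Values were normalized to vehicle (0% activity) and zero RLU (-100% activity). Reporter HEK293 cells had been exposed to compounds (up to 57.5 uM final) for 24 h.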

Activity change, positive = activation, inactive:
CCOC(=O)c1c(C)c(C(=O)NCc2ccc(Cl)cc2)c(C)n1CC -24.8%
CC(C)c1ccccc1Oc1c(C(F)(F)F)oc2c(CN3CCN(C)CC3)c(O)ccc2c1=O 0%
Cn1c(-c2ccc(S(=O)(=O)N3CCCC3)cc2)csc1=Nc1ccc(Cl)c(Cl)c1 -74%
CCOc1ccccc1Nc1sc(C(=O)c2ccc(Cl)cc2)c(N)c1C(=O)NCCc1ccccc1 0.748%
O=C(Cn1c(=O)n(CCc2ccccc2)c(=O)c2c3c(sc21)CCCC3)Nc1ccc(F)c(F)c1 -7.54%
Brc1ccc(CN2CCc3nc(N4CCN(c5ncccn5)CC4)ncc3C2)cc1 -28.9%
CCCc1nnc(NC(=O)Cc2coc3ccc(C)cc23)s1 -10.3%
Cc1ccccc1NC(=O)CSc1nc2ccccc2c2nc(CCn3c(C)nc4ccccc43)nn12 -4.94%
COc1ccc(NCc2cc3ccc(OC)cc3n(CC(=O)Nc3cccc(OC)c3)c2=O)cc1 34.1%
Cc1ccc(CNC(=O)c2cn(C)c3ccc(S(=O)(=O)N4CCOCC4)cc3c2=O)cc1 15.4% [at 11.5 µM, percent change from vehicle, -100% = no light]
CCOc1ccc(-c2nc(CNC(=O)Nc3ccccc3)c(C)o2)cc1 2.47%
COc1ccccc1N1CCN(C(=O)c2cc3c(=O)oc4ccc(C)cc4c3s2)CC1 -15.7%
COc1ccccc1CNC(=O)CN1C(=O)c2cccnc2Oc2ccccc21 19.5%
Cc1ccc(-c2noc(CSc3nnc(C)n3-c3ccc(C)cc3)n2)cc1 -16.4%
COc1ccc(OCCSc2nc3ccccc3n2CC(=O)N2CCOCC2)cc1 -11.5%
COc1ccc(NC(=O)CCCc2nnc3n(CCC(C)C)c(=O)c4sccc4n23)cc1Cl -21.1%
COc1ccc(/C=C/c2onc(C)c2S(=O)(=O)N2CCC(C(=O)N3CCCCC3)CC2)cc1 -31%
CCOc1ccc(CNC(=O)C2CCN(C(=O)c3sccc3-n3cccc3)CC2)cc1 -17.1%
Cc1ccc(-n2c(SCCC(C)C)nc3sc4c(c3c2=O)CC(C)(C)OC4)cc1 -6.18%
COc1ccc(-c2cc(C(C)=O)c(C)n2CCC(=O)NC2CCCCC2)cc1 -17.4%
CCOC(=O)c1c(C)[nH]c(C)c1S(=O)(=O)NCC(=O)N1CCN(c2cc(Cl)ccc2C)CC1 -26.4%
CC(Oc1ccccc1)C(=O)N1CCN(Cc2cc(=O)n3nc(-c4ccccc4Cl)sc3n2)CC1 (stereo unspecified) -13.3%
O=C(CCSCc1ccccc1Cl)N1CCN(c2ccc(F)cc2)CC1 -16%
CCc1ccc(C(=O)c2cn(CC(=O)Nc3ccc4c(c3)OCCO4)c3ccc(C)cc3c2=O)cc1 -19.9%
CC(=O)c1ccc(NC(=O)COc2ccccc2-c2nc(-c3ccccc3)no2)cc1 -6.93%
COCc1cc(C)nc2sc3c(c12)NC(c1ccccc1C(=O)O)N(c1ccc(OC)cc1)C3=O (stereo unspecified) 2.08%
O=c1c2c3c(sc2n(Cc2cc(=O)n4ccccc4n2)c(=O)n1-c1ccccc1)CCC3 -0.0154%
Cc1ccc(C)c(NC(=O)c2nnn(CC(=O)Nc3cccc(C)c3C)c2N)c1 -14.3%
O=c1cc(CN2CCN(S(=O)(=O)c3ccccc3)CC2)nc2sc(-c3ccccc3Cl)nn12 -6.22%
Cc1ccc(NC(=O)C(Cc2ccccc2)NS(=O)(=O)c2cccs2)cc1Cl (stereo unspecified) -0.313%
CCCN(C(=O)c1sc2nc3n(c(=O)c2c1C)CCCC3)c1ccccc1C -31.5%
CC(C)N(CC[C@H](c1ccccc1)c1cc(CO)ccc1O)C(C)C -8.04%
Cc1ccc2c(c1)CC(C)N2S(=O)(=O)c1nnc(NC(=O)C(C)C)s1 (stereo unspecified) -23.3%
Cc1cccc(NC(=O)C2CCN(S(=O)(=O)c3ccc4c(c3)CCCC(=O)N4)CC2)c1 -10.9%
CCCNC(=O)C1CCC(Cn2c(=O)c3sccc3n(CC(=O)Nc3ccccc3C)c2=O)CC1 (stereo unspecified) -13%
CC(NC(=O)c1ccc2nc(Cc3ccccc3)oc2c1)c1ccccc1 (stereo unspecified) -3.59%
Cc1cc(=O)n(CC(=O)Nc2cccc([N+](=O)[O-])c2)c(-n2nc(C)cc2C)n1 -8.48%
CCc1noc(-c2ccc(N(C)Cc3ccc(OC)cc3)c([N+](=O)[O-])c2)n1 -35.1%
CCOc1ccc(CCNC(=O)c2sc3ncccc3c2-n2c(C)ccc2C)cc1 -26.6%
CCc1ccc(Nc2cc(C(=O)NCCCN(C)c3ccccc3)c3ccccc3n2)cc1 2.46%
COc1ccc(OC)c(NC(=O)N2CCC(N3CCN(Cc4ccc(F)cc4)C(=O)C3=O)CC2)c1 -7.57%
COC(=O)c1c(NC(=O)c2cc3nc(-c4ccc(Br)cc4)cc(C(F)(F)F)n3n2)sc2c1CCCC2 8.01%
COc1ccc(NC(=O)Cn2cc(C(=O)C3CCCCC3)c3ccccc32)cc1 -17.3%
Cc1c(Cl)cccc1NC(=O)C(=O)NCC(c1cccnc1)N1CCN(c2ccccc2)CC1 (stereo unspecified) -26.6%
CC(C)Oc1ccc(C(=O)N2CC(=O)Nc3ccc(F)cc3C2c2ccc(F)cc2)cc1 (stereo unspecified) -12.4%
CCOc1ccc(CNC(=O)CN2C(=O)C3CCCCN3c3ccc(C(=O)N4CCCC4)cc32)cc1 (stereo unspecified) -7.42%
COc1ccccc1CNC(=O)c1cc2cc(C)ccc2n1C -31.7%
CN(C)c1cccc(C(=O)N2CCC(c3ccncc3)CC2)c1 -51.6%
COc1cc(CNc2ccc3[nH]c(=O)[nH]c3c2)cc(Br)c1OCc1ccc(F)cc1 -35.3%
COCCNc1ncnc2onc(-c3ccc(F)cc3)c12 -7.15%
O=C(O)CCc1ccc(-c2cccs2)n1CC(=O)Nc1ccccc1C(F)(F)F -8.96%
O=C(CSc1nc(-c2ccccc2)nc2c1CCCC2)c1ccc(Cl)cc1 -1.67%
CN1CCN2c3ncccc3Cc3ccccc3C2C1 (stereo unspecified) -10.7%
COc1ccc(Cn2ccc3nc(C)c(C(=O)N4CCN(c5cc(C)ccc5C)CC4)cc3c2=O)cc1 -26.2%
CCc1cccc(C)c1NC(=O)C(CC)n1ncn2c(cc3cc(C)ccc32)c1=O (stereo unspecified) -3.57%
CCOc1ccc(CNC(=O)c2cnc3sc(N4CCCCCC4)nn3c2=O)cc1OC 2.39%
Cc1ccc(S(=O)(=O)c2nc(S(=O)(=O)c3ccc(C)cc3)c(NC(C)C)s2)cc1 -1.85%
Cc1ccc(C)c(NC(=O)Cn2c(=O)n(Cc3ccc4c(c3)OCO4)c(=O)c3ccc(C(=O)NC4CCCCC4)cc32)c1 -13.6%
CCN(CC)c1ccc(NC(=O)c2cc3c(=O)n4cccc(C)c4nc3n2C)c(C)c1 -1.76%
Cc1cc(S(=O)(=O)NCC(c2ccc(N(C)C)cc2)N2CCOCC2)ccc1F (stereo unspecified) -12.5%
O=C(CSC1=Nc2ccccc2N=C(c2ccc(F)cc2)C1)NCc1ccc(Cl)cc1 -29.6%
CCn1nc(C)c2c(-c3ccccc3)cc(=O)n(C(C)C(=O)NCc3ccc(C)cc3)c21 (stereo unspecified) -30.1%
CN(C(=O)CN(CCO)CC(=O)N(C)C(C)(C)Cc1ccccc1)C(C)(C)Cc1ccccc1 -25.2%
CCCCCNC(=O)CCn1c(=O)[nH]c2ccccc2c1=O -12%
COc1ccc(/C=C/c2nc3ccccc3c(=O)n2-c2cccc(C(F)(F)F)c2)cc1 -19%
Cc1ccc(CN(C(=O)COc2ccc(Cl)cc2Cl)C2CCS(=O)(=O)C2)o1 (stereo unspecified) -16.7%
Cc1[nH]c(=O)[nH]c(=O)c1S(=O)(=O)N1CCN(c2cccc(Cl)c2)CC1 -3.67%
CN(C)S(=O)(=O)c1ccc2c(c1)C(=Cc1cc3c([nH]1)CCCC3)C(=O)N2 -37%
COc1ccc(Cl)cc1NC(=O)N1CCC(CN2CCCCCC2)CC1 -2.14%
CCc1ccccc1NC(=O)C(C)n1nc(-c2ccc(C)c(C)c2)ccc1=O (stereo unspecified) -23.2%
Cc1cccc(Cn2cc(C(=O)Nc3ccc(S(N)(=O)=O)cc3)ccc2=O)c1 -3.89%
COc1ccc(CNC(=O)CN2C(=O)CSc3ccc(S(=O)(=O)N4CCCC4)cc32)cc1 -8.21%
CCCCNC(=O)CN1C(=O)COc2ccc(S(=O)(=O)N3CCCC3)cc21 -4.2%
CSc1cccc(NC(=O)Cn2cnc(S(=O)(=O)N3CCCC3)c2)c1 -8.73%
CC1=C(C(=O)OCC2CCCCC2)C(c2ccc(Cl)cc2Cl)CC(=O)N1 (stereo unspecified) -33.4%
O=C(Nc1ccccc1OCc1cc(=O)n2ccccc2n1)c1ccccc1F 4.12%
CCCn1c2ccccc2c2cnn(CC(=O)NCc3cc(OC)ccc3OC)c(=O)c21 -8.79%
COc1ccc(CNC(=O)C(=O)NCC(c2ccco2)S(=O)(=O)c2ccc(C)cc2)cc1 (stereo unspecified) -19.5%
COc1cc2nc(Nc3ccc(F)cc3)nc(N)c2cc1OC -1.18%
CCOC(=O)c1cccc(NC(=O)C(Cc2ccccc2)NS(=O)(=O)c2cccc3nsnc23)c1 (stereo unspecified) -32.5%
COc1ccc(NC(=O)CN(C)S(=O)(=O)c2cccc3nsnc23)cc1 8.83%
COC(=O)N/N=C/c1c[n+]([O-])c2ccccc2[n+]1[O-] -1.74%
COc1ccc(N(C(=O)COc2ccccc2OC)S(=O)(=O)c2ccc(Cl)cc2)cc1 -30%
Cc1noc(C)c1S(=O)(=O)N1CCCC(C(=O)Nc2ccc(C(C)C)cc2)C1 (stereo unspecified) -4.42%
CCc1ccccc1NC(=O)Nc1cc(C(=O)NCc2ccc(OC)cc2)ccc1N1CCCC1 2.74%
COc1cc(NS(=O)(=O)c2ccc(N)cc2)ncn1 -8.28%
CCOc1ccc(CCNC(=O)C2CCC(CNS(=O)(=O)c3ccc(Cl)cc3)CC2)cc1OCC (stereo unspecified) -30.2%
COc1cccc(-n2cc(C(=O)Nc3cc(C)c(Cl)cc3OC)c3ccccc3c2=O)c1 -23.7%
CCOc1ccc(CNC(=O)C2CCN(c3nn4c(=O)cc(C)nc4s3)CC2)cc1 -16.5%
CO[C@H]1C=CO[C@@]2(C)Oc3c(C)c(O)c4c(O)c(c(C=NN5CCN(C)CC5)c(O)c4c3C2=O)NC(=O)C(C)=CC=C[C@H](C)[C@H](O)[C@@H](C)[C@@H](O)[C@@H](C)[C@H](OC(C)=O)[C@H]1C -6.65% [at 19.1 µM, percent change from vehicle, -100% = no light]
CC1(C)O[C@@H]2C[C@H]3[C@@H]4C[C@H](F)C5=CC(=O)C=C[C@]5(C)[C@@]4(F)[C@@H](O)C[C@]3(C)[C@]2(C(=O)CO)O1 -6.46%

From PubChem BioAssay AID1508624 (National Center for Advancing Translational Sciences (NCATS), 2021)
